{"source": "PubChem BioAssay AID1768", "about": "(National Center for Advancing Translational Sciences (NCATS), 2009)", "note": "Among all 270,000 compounds or so, about 620 (0.23%) were called active. The inconclusive results got no clear call from the source; some entries with a clear call stand among them for comparison. Calls follow the shape of the dose curve; as a rule, active = well fitted inhibition curve with a large enough effect in the polarisation, with a control signal flat (not every such curve was filed as active); inconclusive = small, poorly fitted or top-dose-only effect, or effect the other way, or a change in a side signal; inactive = no such curve, though single readings can be large or run the other way; the % refers to the polarisation. Potencies of inconclusive entries are doubtful fits and often do not repeat. A note “side channel” means that the fit belongs to a control or component signal, not to the main read-out. Potency is read from the fitted curve at half-maximal effect; tags tell the direction and shape of the fitted curve or compound fluorescence and quenching."}
{"biological_target": "Menin (Homo sapiens) (UniProt O00255)", "sequence (O00255 whole entry, looked up)": "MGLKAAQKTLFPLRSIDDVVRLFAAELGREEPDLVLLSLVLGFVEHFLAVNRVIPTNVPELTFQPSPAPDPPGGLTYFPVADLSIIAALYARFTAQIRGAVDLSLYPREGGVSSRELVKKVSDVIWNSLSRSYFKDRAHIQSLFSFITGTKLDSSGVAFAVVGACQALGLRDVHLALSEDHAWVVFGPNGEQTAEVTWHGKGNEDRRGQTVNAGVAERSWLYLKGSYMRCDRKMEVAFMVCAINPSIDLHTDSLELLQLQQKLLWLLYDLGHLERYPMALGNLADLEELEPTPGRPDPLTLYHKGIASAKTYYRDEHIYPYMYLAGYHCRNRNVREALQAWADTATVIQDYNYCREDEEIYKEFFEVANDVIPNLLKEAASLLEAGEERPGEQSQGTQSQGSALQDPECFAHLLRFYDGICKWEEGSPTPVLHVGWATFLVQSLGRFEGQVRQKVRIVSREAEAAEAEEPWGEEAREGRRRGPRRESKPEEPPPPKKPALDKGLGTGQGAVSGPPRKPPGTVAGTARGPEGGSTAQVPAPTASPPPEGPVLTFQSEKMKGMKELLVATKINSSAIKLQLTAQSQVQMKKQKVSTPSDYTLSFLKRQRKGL", "test": "qHTS Assay for Inhibitors Targeting the Menin-MLL Interaction in MLL Related Leukemias: Competition With Texas Red Labeled MLL-derived Mutant Peptide; as to FP activity change, negative = inhibition: % of control where 0% means no effect", "conditions": "fluorescence polarization; FP activity change, negative = inhibition: at 61.6 µM (top of the series)"}
{"smiles": "c1ccc(CCn2nnnc2CN2CCc3ccccc32)cc1", "Potency": "inactive"}
{"smiles": "Cc1ccc(C(=O)N2CCN(S(=O)(=O)N3CCCCCC3)CC2)cc1", "Potency": "inconclusive: 0.891 µM [inhibitor, full curve, poor fit]"}
{"smiles": "COC(=O)c1cc(NC(=S)NCc2ccc(Cl)cc2)cc(C(=O)OC)c1", "Potency": "inconclusive: 15.8 µM [quencher, side channel, partial curve]"}
{"smiles": "CCOC(=O)C(CC)Sc1nc2c(cnn2-c2ccc(F)cc2)c(=O)[nH]1", "note": "(configuration not stated)", "Potency": "inconclusive: 1.12 µM [quencher, side channel, full curve]"}
{"smiles": "CCCn1c(SCC(=O)NC23CC4CC(CC(C4)C2)C3)n[nH]c1=O", "Potency": "inconclusive: 3.98 µM [inhibitor, single point]"}
{"smiles": "Cc1cccc(Nc2nnc(SCC(=O)c3ccc(O)cc3O)s2)c1", "Potency": "inconclusive: 11.2 µM [quencher, side channel, partial curve]"}
{"smiles": "CC(C)CO/N=C1/C[C@@H](O)[C@@H](O)[C@@H]2[C@@H]3C(=O)N(C(C)(C)C)C(=O)[C@H]3CC[C@@H]12", "FP activity change, negative = inhibition": "inactive: -0.945% [at 11.7 µM]"}
{"smiles": "CN(C)c1ccc(C(=S)NCc2ccco2)cc1", "Potency": "inconclusive: 35.5 µM [quencher, side channel, single point]"}
{"smiles": "Cc1ccc(C)c(N2CCN(S(=O)(=O)c3ccc4c(c3)NC(=O)CC(=O)N4)CC2)c1", "Potency": "inconclusive: 44.7 µM [inhibitor, partial curve]"}
{"smiles": "Cc1ccc(S(=O)(=O)Nc2ccc(C(=O)Nc3cc(C)on3)cc2)cc1", "Potency": "inconclusive: 25.1 µM [quencher, side channel, partial curve]"}
{"smiles": "CCOC(=O)c1cccc(NC(=O)CCNS(=O)(=O)c2ccc3c(c2)CCN3C(=O)CC)c1", "Potency": "inconclusive: 20 µM [inhibitor, single point]"}
{"smiles": "CC(CCc1ccccc1)NC(=O)CN1CCN(c2ccccc2)CC1", "note": "(configuration not stated)", "Potency": "inconclusive: 3.16 µM [fluorescent, side channel, partial curve]"}
{"smiles": "Cc1ccc(C)c(Cn2nnc3c(=O)[nH]c(C4CCN(C(=O)c5cccs5)CC4)nc32)c1", "Potency": "inconclusive: 4.47 µM [fluorescent, side channel, full curve, poor fit]"}
{"smiles": "O=c1c2cc(N3CCOCC3)ccc2[nH]c(=S)n1CCc1ccccc1", "Potency": "inconclusive: 11.2 µM [quencher, side channel, partial curve]"}
{"smiles": "O=C(c1cc2ccccc2oc1=O)N(Cc1cccs1)C1CCS(=O)(=O)C1", "note": "(configuration not stated)", "Potency": "inactive"}
{"smiles": "Cc1ccccc1NC(=O)CCS(=O)(=O)c1cccc2nonc12", "Potency": "inconclusive: 39.8 µM [quencher, partial curve]"}
{"smiles": "CCOc1ccccc1C(=O)N[C@H](C(=O)NCc1ccccc1)C(C)C", "Potency": "inconclusive: 17.8 µM [fluorescent, side channel, partial curve]"}
{"smiles": "CCOc1ccc2nc(/N=C/c3c(C)[nH]n(-c4ccccc4)c3=O)sc2c1", "Potency": "inconclusive: 25.1 µM [quencher, side channel, single point]"}
{"smiles": "Cc1nc(S/C(=C/c2ccc(OCc3ccc(C(=O)O)cc3)cc2)C(=O)O)n[nH]1", "Potency": "inconclusive: 35.5 µM [quencher, side channel, single point]"}
{"smiles": "CO/N=C/c1ccc(N2CCN(C(=O)c3cccc(C(F)(F)F)c3)CC2)c([N+](=O)[O-])c1", "Potency": "inactive"}
{"smiles": "CC(=O)NC(=S)Nc1ccccc1N1CCN(C(=O)c2ccccc2)CC1", "Potency": "inconclusive: 20 µM [inhibitor, single point]"}
{"smiles": "Cc1ccc(NC(=O)Cn2cncc2-c2ccc([N+](=O)[O-])cc2)cc1C", "Potency": "inconclusive: 17.8 µM [quencher, side channel, partial curve]"}
{"smiles": "COc1cnc(-c2ccccn2)nc1Sc1ccc(F)cc1", "Potency": "inconclusive: 10 µM [fluorescent, side channel, partial curve]"}
{"smiles": "Cc1nnc(C)c2c(C)n(-c3ccccc3N)c(C)c12", "Potency": "inconclusive: 31.6 µM [inhibitor, single point]"}
{"smiles": "CCCCOc1cccc(-c2nnc(NC(=O)CSc3ccc(C)cc3)s2)c1", "Potency": "inconclusive: 14.1 µM [inhibitor, partial curve]"}
{"smiles": "COC(=O)c1ccc(/C(O)=C(\\C#N)c2nc3ccccc3s2)cc1", "Potency": "inconclusive: 15.8 µM [quencher, side channel, partial curve]"}
{"smiles": "C/C(=N\\NC(=O)c1cc(-c2cccnc2)nc2ccccc12)c1ccc(O)cc1O", "Potency": "inconclusive: 17.8 µM [quencher, side channel, partial curve]"}
{"smiles": "O=C(Cn1c(=O)[nH]c2ccccc2c1=O)Nc1ccc2c(c1)OCO2", "Potency": "inconclusive: 25.1 µM [quencher, side channel, single point]"}
{"smiles": "COc1ccc(-c2csc(NC(=S)NC(=O)c3ccco3)n2)cc1", "Potency": "inconclusive: 14.1 µM [fluorescent, side channel, single point]"}
{"smiles": "O=C(Cc1c(C(=O)O)[nH]c2ccc(Cl)cc12)Nc1ccc2c(c1)OCCO2", "Potency": "inconclusive: 31.6 µM [quencher, side channel, single point]"}
{"smiles": "COC(=O)c1cc(OC)c(OC)cc1NCC(=O)Nc1cccc(C(F)(F)F)c1", "Potency": "inconclusive: 31.6 µM [quencher, side channel, partial curve]"}
{"smiles": "Cc1cc(OCc2cc(C(=O)NCc3csc(C(C)C)n3)no2)cc(C)c1Cl", "Potency": "inconclusive: 6.31 µM [fluorescent, side channel, partial curve]"}
{"smiles": "CCc1sc(C(=O)N2CCc3ccccc32)cc1C", "Potency": "inconclusive: 22.4 µM [fluorescent, side channel, partial curve, poor fit]"}
{"smiles": "Cc1ccc(-c2nc(-c3ccncc3)no2)cc1", "Potency": "inconclusive: 25.1 µM [fluorescent, side channel, single point]"}
{"smiles": "Cc1cc(C)cc(Nc2ccc(C(=O)O)cc2[N+](=O)[O-])c1", "Potency": "inconclusive: 31.6 µM [quencher, side channel, single point]"}
{"smiles": "O=C(CCSc1nc(-c2ccc3c(c2)OCO3)cc(C(F)(F)F)n1)NCc1ccccc1", "Potency": "inactive"}
{"smiles": "O=[N+]([O-])c1cc([N+](=O)[O-])c2cc3ccccc3nc2c1", "Potency": "inconclusive: 8.91 µM [quencher, side channel, partial curve]"}
{"smiles": "CN(C)c1ccc(N/C=C/C(=O)C(C)(C)C)cc1", "Potency": "inconclusive: 39.8 µM [fluorescent, side channel, single point]"}
{"smiles": "Cc1sc(N/N=C/C=C/c2ccccc2)nc1-c1ccccc1", "Potency": "inconclusive: 28.2 µM [quencher, side channel, partial curve]"}
{"smiles": "O=C(CSc1ccc2ccccc2c1Br)Nc1cccc(S(=O)(=O)NC2=NCCCCC2)c1", "Potency": "inconclusive: 39.8 µM [inhibitor, single point]"}
{"smiles": "O=S(=O)(N/N=C/c1cn(Cc2ccccc2)c2ccccc12)c1ccccc1", "Potency": "inconclusive: 10 µM [quencher, side channel, partial curve]"}
{"smiles": "O=[N+]([O-])c1cc([N+](=O)[O-])c2cccnc2c1O", "Potency": "inconclusive: 31.6 µM [quencher, side channel, single point]"}
{"smiles": "CS(=O)(=O)N1CCC(C(=O)Nc2ccccc2Sc2ccccc2)CC1", "Potency": "inconclusive: 39.8 µM [inhibitor, single point]"}
{"smiles": "COc1ccc(OC)c(-n2nnnc2SCC(=O)Nc2nc(C)c(C)s2)c1", "Potency": "inconclusive: 39.8 µM [fluorescent, side channel, single point]"}
{"smiles": "CCN(CC)C(=O)CN(C#N)c1nc(NC(C)C)nc(NC(C)C)n1", "Potency": "inconclusive: 7.94 µM [inhibitor, full curve]"}
{"smiles": "O=C(c1cnn2c1NC(c1ccc(Br)cc1)CC2C(F)(F)F)N1CCN2CCCC2C1", "note": "(configuration not stated)", "Potency": "inconclusive: 39.8 µM [fluorescent, side channel, single point]"}
{"smiles": "O=C1c2ccccc2C(=O)N1CSc1nnc(Nc2ccccc2)s1", "Potency": "inconclusive: 39.8 µM [fluorescent, side channel, single point]"}
{"smiles": "COc1cc(CCC(=O)OCC(=O)N2CCc3ccccc32)cc(OC)c1OC", "Potency": "inactive"}
{"smiles": "CC(=O)Nc1ccc(Oc2ccc([N+](=O)[O-])cc2Cl)cc1", "Potency": "inconclusive: 31.6 µM [quencher, side channel, single point]"}
{"smiles": "Cc1ccc(O)c(C(=O)CC(=O)c2cccc(F)c2)c1", "Potency": "inconclusive: 25.1 µM [quencher, side channel, single point]"}
{"smiles": "c1ccc(OCCCn2nnc(-c3ccc(N4CCOCC4)cc3)n2)cc1", "Potency": "inconclusive: 31.6 µM [inhibitor, single point]"}
{"smiles": "O=C(Nc1cccc(O)c1)c1ccc([N+](=O)[O-])cc1Cl", "Potency": "inactive"}
{"smiles": "Cc1nc(SCC(=O)N2CCOCC2)c2c(C)c(C)sc2n1", "Potency": "inconclusive: 15.8 µM [inhibitor, partial curve]"}
{"smiles": "Cc1ccc(O)c(NC(=O)c2noc3c2CCc2ccccc2-3)c1", "Potency": "inconclusive: 25.1 µM [quencher, side channel, partial curve]"}
{"smiles": "O=C(Nc1cc(Br)ccc1O)C1CC(c2ccccc2Cl)=NO1", "note": "(configuration not stated)", "Potency": "inconclusive: 15.8 µM [quencher, side channel, partial curve]"}
{"smiles": "Cc1ccc2c(c1)/C(=N/OC(=O)c1ccc(F)cc1)CCS2", "Potency": "inconclusive: 28.2 µM [fluorescent, side channel, single point]"}
{"smiles": "COc1ccc(-n2c(=S)[nH]c3ccccc3c2=S)cc1", "Potency": "inconclusive: 39.8 µM [fluorescent, single point]"}
